The experiment has as its system potential dependent calcium channel. Nature of the experiment: Measurement of potential dependent calcium channel activity using fluorescent dye (fura2) in cerebral cortex synaptosome stimulated with KCl. The experiment is classed as cell-based. Conditions: rat cerebral cortex synaptosome, KCl stimulation, fura2, intracellular calcium ion concentration. Background: A change in cytosolic calcium serves as a functional read-out for many receptors and channels.

As to `CC(C)C(C#N)(CCCN1CC[C@H](N(CCC#N)Cc2ccccc2)C1)c1ccc(C#N)s1` (stereo partly drawn) [Example 175, 1-[4-cyano-4-(5-cyano-2-thienyl)-5-methylhexyl]-(3S)-3-[N-(2-cyanoethyl)-N-benzylamino]Pyrrolidine], the half-inhibitory concentration (IC50) came out at 3.9 µM.

As to `CC(=O)c1cccc(OCCN2CCN(CCCC(C#N)(c3ccccc3)C(C)C)CC2)c1` (centres unmarked) [Example 1], the IC50 worked out at 8.4 µM.

For the molecule `CC(C)C(C#N)(CCN1CCN(CCC(C#N)(c2ccccc2)C(C)C)CC1)c1ccccc1` (centres unmarked) [Example 123, Bis-1,4-[(3-cyano-4-methyl-3-phenyl)pentyl]piperazine], the 50% inhibitory concentration (IC50) was found to be 8.5 µM.

As for `CC(C)C(C#N)(CCCN1CC[C@H](N(CCC#N)Cc2cccc(C#N)c2)C1)c1cccs1` (stereo partly drawn) [Example 177, 1-[4-cyano-4-(2-thienyl)-5-methylhexyl]-(3S)-3-[N-(2-cyanoethyl)-N-(3-cyanobenzyl)amino]pyrrolidine], the IC50 was 3.4 µM.

As for `CC(C)C(C#N)(CCCN1CCN(CCOc2cccc(Br)c2)CC1)c1cccs1` (centres unmarked) [Example 101, 1-[4-cyano-5-methyl-4-(2-thienyl)hexyl]-4-[2-(3-bromophenoxy)ethyl]piperazine], the IC50 is 0.8 µM.

With `CC(C)C(C#N)(CCCN1CCN(CCOc2cncc(Cl)c2)CC1)c1cccs1` (centres unmarked) [Example 185, 1-[4-Cyano-4-(2-thienyl)-5-methylhexyl]-4-[2-(5-chloro-3-pyridyloxy]ethyl]piperazine], the IC50 came out at 13 µM.

For the molecule `CC(C)C(C#N)(CCCN1CCN(Cc2ccc(-c3ccccc3)nc2)CC1)c1ccccc1` (centres unmarked) [Example 38, 1-[(4-cyano-5-methyl-4-phenyl)hexyl]-4-[(6-phenylpyridine-3-yl)methyl]piperazine], the IC50 was determined as 5.8 µM.

With `CC(C)C(C#N)(CCCN1CCN(/C(=N/C#N)NCCOc2ccc(F)cc2)CC1)c1ccccc1` (centres unmarked) [Example 62, N-Cyano-4-[1(4-cyano-5-methyl-4-phenyl)hexyl]-N′-[(4-fluorophenoxy)ethyl]pyrazinecarboxyimidamide], the IC50 was 5.3 µM.

Turning to `CC(C)C(C#N)(CCCN1CCN(Cc2csc(-c3ccccc3)n2)CC1)c1ccccc1` (centres unmarked) [Example 40, 1-[(4-cyano-5-methyl-4-phenyl)hexyl]-4-[(2-phenylthiazo-4-yl)methyl]piperazine], the 50% inhibitory concentration (IC50) is 3.5 µM.

Regarding `CC(C)C(C#N)(CCCN1CCN(CCOc2ccccc2)CC1)c1cccs1` (centres unmarked) [Example 102, 1-[4-cyano-5-methyl-4-(2-thienyl)hexyl]-4-(2-phenoxyethyl)piperazine], the IC50 turned out to be 1.9 µM.

For `CC(C)C(C#N)(CCCN1CCN(CC2CCc3ccccc3C2)CC1)c1ccccc1` (centres unmarked) [Example 9, 1-[(4-cyano-5-methyl-4-phenyl)hexyl]-4-[(1.2.3.4-tetrahydro-2-naphthyl)methyl]piperazine], the IC50 came out at 4.5 µM.

Turning to `CC(C)C(C#N)(CCCN1CCN(CC2CCCCC2)CC1)c1cccs1` (centres unmarked) [Example 116, 1-[4-Cyano-5-methyl-4-(2-thienyl)hexyl]-4-(cyclohexylmethyl)piperazine], the half-maximal inhibitory concentration (IC50) was determined as 9.4 µM.

In the case of `CC(C)C/N=C(\NCc1ccc(F)cc1)N1CCN(CCCC(C#N)(c2ccccc2)C(C)C)CC1` (centres unmarked) [Example 60, 4-[(4-cyano-5-methyl-4-phenyl)hexyl]-N-(4-fluorobenzyl)-N′-(2-methylpropyl)-1 (2H)-pyrazinecarboxyimidamide], the half-maximal inhibitory concentration (IC50) turned out to be 7.4 µM.

Consider `CC(C)C(C#N)(CCCN1CCN(CCOc2cccc(C#N)c2)CC1)c1cccs1` (centres unmarked) [Example 75], for which the IC50 came out at 9 µM.

Consider `CC(C)C(C#N)(CCCN1CCC(Nc2nc3ccccc3o2)CC1)c1ccccc1` (centres unmarked) [Example 17], for which the half-inhibitory concentration (IC50) is 8 µM.

In the case of `CC(C)C(C#N)(CCCN1CCN(CCOc2ccc(C#N)cc2)CC1)c1cccs1` (centres unmarked) [Example 76], the IC50 is 13 µM.

As to `Cc1ccc2oc(CN3CCN(CCCC(C#N)(c4ccc(C#N)s4)C(C)C)CC3)nc2c1` (centres unmarked) [Example 181, 1-[4-Cyano-4-(5-cyano-2-thienyl)-5-methylhexyl]-4-[2-(5-methylbenzoxazoyl)methyl]piperazine], the IC50 was 8.6 µM.

Take `CC(C)C(C#N)(CCN1CCN(CCOc2ccc(F)cc2)CC1)c1cccs1` (centres unmarked) [Example 115]: the half-maximal inhibitory concentration (IC50) amounted to 8.2 µM.

For the molecule `CC(C)C(C#N)(CCCN1CCN(CCN2CCCc3ccccc32)CC1)c1ccccc1` (centres unmarked) [Example 58], the IC50 amounted to 5.6 µM.

As to `CC(C)C(C#N)(CCCN1CCN(Cc2nc3cc(Cl)ccc3o2)CC1)c1ccc(C#N)s1` (centres unmarked) [Example 180, 1-[4-Cyano-4-(5-cyano-2-thienyl)-5-methylhexyl]-4-[2-(5-chlorobenzoxazoyl)methyl]piperazine], the half-maximal inhibitory concentration (IC50) was found to be 9.3 µM.

Consider `CC(C)C(C#N)(CCCN1CCN(CC2COc3ccccc3O2)CC1)c1ccccc1` (centres unmarked) [Example 11, 1-[(4-cyano-5-methyl-4-phenyl)hexyl]-4-[2-(1,4-benzodioxanyl) Methyl]piperazine], for which the IC50 was determined as 5.1 µM.

Consider `CC(C)C(C#N)(CCCN1CCN(CCOc2cccc(Br)c2)CC1)c1ccc(C#N)s1` (centres unmarked) [Example 108, 1-[4-cyano-5-methyl-4-(5-cyano-2-thienyl)hexyl]-4-[2-(3-bromophenoxy)ethyl]piperazine], for which the IC50 worked out at 0.6 µM.

On to `CC(C)C(C#N)(CCCN1CCC(Nc2nc3ccccc3s2)CC1)c1ccccc1` (centres unmarked) [Example 18], for which the IC50 was 5.6 µM.

As to `CC(C)C(C#N)(CCCN1CCN(Cc2nc3ccccc3s2)CC1)c1ccc(C#N)s1` (centres unmarked) [Example 182, 1-[4-Cyano-4-(5-cyano-2-thienyl)-5-methylhexyl]-4-[2-benzothiazoylmethyl]piperazine], the IC50 worked out at 7.8 µM.

As to `CC(C)C(C#N)(CCCN1CCC(N(CCC#N)CCOc2cccc(F)c2)C1)c1ccccc1` (centres unmarked) [Example 32, 1-[(4-cyano-5-methyl-4-phenyl)hexyl]-3-[N-(2-cyanoethyl)-N-[2-(3-fluorophenoxy)ethyl]Amino]pyrrolidine], the half-maximal inhibitory concentration (IC50) turned out to be 5.1 µM.

Take `CC(=O)c1cccc(OCCN2CCN(CCCC(C#N)(c3cccs3)C(C)C)CC2)c1` (centres unmarked) [Example 96, 1-[4-cyano-5-methyl-4-(2-thienyl)hexyl]-4-[2-(3-acetylphenoxy)ethyl]piperazine]: the IC50 was 1.9 µM.

Consider `CC(C)C(C#N)(CCCN1CCN(Cc2c[nH]c3ccccc23)CC1)c1ccccc1` (centres unmarked) [Example 5, 1-[(4-cyano-5-methyl-4-phenyl)hexyl]-4-[(3-indolyl)methyl]piperazine], for which the IC50 was 7.6 µM.

Turning to `CC(C)C(C#N)(CCCN1CCC(CCOc2ccc(F)cc2)CC1)c1ccccc1` (centres unmarked) [Example 46], the IC50 worked out at 4.9 µM.

As to `CC(C)C(C#N)(CCCN1CCN(Cc2cc3cc(C#N)ccc3o2)CC1)c1cccs1` (centres unmarked) [Example 106, 1-[4-Cyano-5-methyl-4-(2-thienyl)hexyl]-4-{[2-(5-cyanobenzofuranyl)}methyl]piperazine], the half-inhibitory concentration (IC50) amounted to 1.3 µM.

For the molecule `CC(C)C(C#N)(CCCN1CCN(CCOc2ccc(C(F)(F)F)cn2)CC1)c1cccs1` (centres unmarked) [Example 183, 1-[4-Cyano-4-(2-thienyl)-5-methylhexyl]-4-[2-(5-trifluoromethyl-2-pyridyloxy)ethyl]piperazine], the half-inhibitory concentration (IC50) amounted to 5.5 µM.

Regarding `C=CCOCC(CN1CCN(CCCC(C#N)(c2ccccc2)C(C)C)CC1)Oc1ccc(F)cc1` (centres unmarked) [Example 55, 1-[(4-Cyano-5-methyl-4-phenyl)hexyl]-4-[3-allyloxy-2-(4-fluorophenoxy)propyl]piperazine], the IC50 turned out to be 3.5 µM.

As to `CC(C)C(C#N)(CCCN1CCN(Cc2ccc3ccccc3n2)CC1)c1ccccc1` (centres unmarked) [Example 6], the IC50 is 9 µM.

As for `CC(C)C(C#N)(CCCN1CCN(CCOc2cccc(Cl)c2)CC1)c1ccc(C#N)s1` (centres unmarked) [Example 110, 1-[4-cyano-5-methyl-4-(2-cyano-5-thienyl)hexyl]-4-[2-(3-chlorophenoxy)ethyl]piperazine], the half-maximal inhibitory concentration (IC50) is 5.6 µM.

Turning to `CC(C)C(C#N)(CCCN1CCN(C(=O)c2cc3ccccc3n2C)CC1)c1ccccc1` (centres unmarked) [Example 12, 1-[(4-cyano-5-methyl-4-phenyl)hexyl]-4-(1-methyl-2-indoloyl)piperazine], the half-inhibitory concentration (IC50) came to 8.2 µM.

For `CC(C)C(C#N)(CCN1CCN(CCOc2cccc(C#N)c2)CC1)c1cccs1` (centres unmarked) [Example 114, 1-[3-cyano-4-methyl-5-(2-thienyl)mentyl]-4-[2-(3-cyanophenoxy)ethyl]piperazine], the concentration for half-maximal inhibition (IC50) worked out at 10 µM.

Take `CC(C)C(C#N)(CCCN1CCN(CCCC(C#N)(c2ccccc2)C(C)C)CC1)c1ccccc1` (centres unmarked) [Example 65, Bis-1,4-[(4-cyano-5-methyl-4-phenyl)hexyl]piperazine]: the IC50 is 2.7 µM.

Consider `CC(C)C(C#N)(CCCN1CCN(CCN(C)c2cccc(C#N)c2)CC1)c1cccs1` (centres unmarked) [Example 113, 1-[4-cyano-5-methyl-4-(2-thienyl)hexyl]-4-{N-[(3-cyanophenyl)-N-methylamino]ethyl]piperazine], for which the concentration for half-maximal inhibition (IC50) was 4.2 µM.

On to `CC(C)C(C#N)(CCCN1CCN(CCOc2cccc(C#N)c2)CC1)c1ccc(Br)s1` (centres unmarked) [Example 109, 1-[4-Cyano-5-methyl-4-(2-bromo-5-thienyl)hexyl]-4-[2-(3-cyanophenoxy)ethyl]piperazine], for which the IC50 amounted to 0.5 µM.

For the molecule `CC(C)C(C#N)(CCCN1CCN(/C(=N/C2CCCCC2)NC2CCCCC2)CC1)c1ccccc1` (centres unmarked) [Example 61], the IC50 stood at 7.7 µM.

Take `CC(=O)c1cccc(OCCN2CCN(CCCC(C#N)(c3ccsc3)C(C)C)CC2)c1` (centres unmarked) [Example 97, 1-[4-cyano-5-methyl-4-(3-thienyl)hexyl]-4-[2-(3-acetylphenoxy)ethyl]piperazine]: the IC50 amounted to 2.1 µM.

For `CC(C)C(C#N)(CCCN1CCC(N2CCC(Cc3ccccc3)CC2)CC1)c1ccccc1` (centres unmarked) [Example 119, 4-[4-(4-benzylpiperidinyl)-piperidinyl]-1-isoproryl-1-phenylbutyl Cyanide], the half-inhibitory concentration (IC50) was found to be 5.4 µM.

Turning to `CC(C)C(C#N)(CCN1CCCN(CCC(C#N)(c2ccccc2)C(C)C)CC1)c1ccccc1` (centres unmarked) [Example 124, Bis-1,4-[(3-cyano-4-methyl-3-phenyl)pentyl]homopiperazine], the half-maximal inhibitory concentration (IC50) is 3.6 µM.

For the molecule `CC(C)C(C#N)(CCCN1CCN(CCOc2cccc(C#N)c2)CC1)c1ccsc1` (centres unmarked) [Example 85, 1-[4-cyano-5-methyl-4-(3-thienyl)hexyl]-4-[2-(3-cyanaphenoxy)ethyl]piperazine], the half-inhibitory concentration (IC50) amounted to 10 µM.

For the molecule `CC(C)C(CCCN1CCN(CCCC(C#N)(c2ccccc2)C(C)C)CC1)c1ccccc1` (centres unmarked) [Example 53, 1-[(4-Cyano-5-methyl-4-phenyl)hexyl]-4-(4-methyl-3-phenyl-hexane)piperazine], the IC50 worked out at 2.8 µM.

The IC50 is the concentration that inhibits the measured activity by half.

(Values after patent US6906072B1 (Eisai Co., Ltd., priority 2000, dated 2005).)
